# This is a noisy data set.
# Experiment: amyloid nucleation score relative to library mode (yeast Sup35 reporter selection) (log enrichment difference); higher = more amyloid nucleation; sequences are the first 22 residues of the Bri2 peptide extended by up to 12 random residues
# Settings: random library (experiment): 1;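 active = nucleation score significantly above 0 at FDR 0.05; inactive = not significantly above 0 or absent from output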
# 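Also: [psi-pin-] Saccharomyces cerevisiae expressing SupN fusions, induced by 100 µM Cu2SO4, selected 7 d at 30 °C without adenine and uracil, scored by deep sequencing of output versus input.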
row,Sequence,amyloid nucleation score
1,EASNCFAIRHFENKFAVETLICNFTIFNLLYKAC,5.58
2,EASNCFAIRHFENKFAVETLICNFVTSGHPRSHV,7.9
3,EASNCFAIRHFENKFAVETLICNG,inactive
4,EASNCFAIRHFENKFAVETLICNGDCCKGRYLRR,4.62
5,EASNCFAIRHFENKFAVETLICNGEVPLDKVCVL,inactive
6,EASNCFAIRHFENKFAVETLICNGGASGRDFVDV,inactive
7,EASNCFAIRHFENKFAVETLICNGHTQRYRRCAG,inactive
8,EASNCFAIRHFENKFAVETLICNGKRS,-0.0755
9,EASNCFAIRHFENKFAVETLICNGLCNRDTDP,6.85
10,EASNCFAIRHFENKFAVETLICNGLYYSSSRSNG,inactive
11,EASNCFAIRHFENKFAVETLICNGRLSYVCDLIV,1.26
12,EASNCFAIRHFENKFAVETLICNGRSSQELALTR,inactive
13,EASNCFAIRHFENKFAVETLICNGRYCGEGLRTS,-0.227
14,EASNCFAIRHFENKFAVETLICNGSCSVPHGGKQ,3.02
15,EASNCFAIRHFENKFAVETLICNGSSAFVMNIV,5.14
16,EASNCFAIRHFENKFAVETLICNGSSVGAQELVW,inactive
17,EASNCFAIRHFENKFAVETLICNGVRSWDDVRRG,inactive
18,EASNCFAIRHFENKFAVETLICNHGMVYDSMECP,inactive
19,EASNCFAIRHFENKFAVETLICNHMGCGHTSYVG,6.25
20,EASNCFAIRHFENKFAVETLICNHVGSPRRGRRA,inactive
21,EASNCFAIRHFENKFAVETLICNHWRYFSRGEQG,0.539

row,Sequence,amyloid nucleation score
1,EASNCFAIRHFENKFAVETLICNIAMMAVVWVLG,4.26
2,EASNCFAIRHFENKFAVETLICNIKLEQVPLHWL,7.5
3,EASNCFAIRHFENKFAVETLICNIQFVYTLDRRR,5.52
4,EASNCFAIRHFENKFAVETLICNIRSVCEWQSLH,3.65
5,EASNCFAIRHFENKFAVETLICNISCSSFGATWE,6.96
6,EASNCFAIRHFENKFAVETLICNISLITCGYLCD,3.27
7,EASNCFAIRHFENKFAVETLICNKA,inactive
8,EASNCFAIRHFENKFAVETLICNKEMASSQVEER,inactive
9,EASNCFAIRHFENKFAVETLICNKRLVSYDMLQF,inactive
10,EASNCFAIRHFENKFAVETLICNKSRVPFRMGCG,inactive
11,EASNCFAIRHFENKFAVETLICNKVQSWGMSGRV,inactive
12,EASNCFAIRHFENKFAVETLICNL,1.29
13,EASNCFAIRHFENKFAVETLICNLACVCRRCAAR,7.5
14,EASNCFAIRHFENKFAVETLICNLCCS,8.01
15,EASNCFAIRHFENKFAVETLICNLCFTVPKVRLF,inactive
16,EASNCFAIRHFENKFAVETLICNLDLVRILIGVL,inactive
17,EASNCFAIRHFENKFAVETLICNLDRIQRLRTVR,inactive
18,EASNCFAIRHFENKFAVETLICNLESGYAVRLHG,inactive
19,EASNCFAIRHFENKFAVETLICNLGKALVYNNAR,6.29
20,EASNCFAIRHFENKFAVETLICNLGLLDKRFDAR,3.41
21,EASNCFAIRHFENKFAVETLICNLHTN,5.17

# Same assay, conditions: random library (experiment): 2
row,Sequence,amyloid nucleation score
1,EASNCFAIRHFENKFAVETLICNFTYNGVRSFVR,5
2,EASNCFAIRHFENKFAVETLICNFVFGTLLASSY,5.1
3,EASNCFAIRHFENKFAVETLICNFVSTDYYTFAC,6.82
4,EASNCFAIRHFENKFAVETLICNFVYSSSICCGL,6.07
5,EASNCFAIRHFENKFAVETLICNGCCSGTHISKL,7.49
6,EASNCFAIRHFENKFAVETLICNGECHPRNALFG,-0.191
7,EASNCFAIRHFENKFAVETLICNGEVSQRNCPVS,5.64
8,EASNCFAIRHFENKFAVETLICNGFRKSSRILRG,inactive
9,EASNCFAIRHFENKFAVETLICNGFVDRSTVMFV,0
10,EASNCFAIRHFENKFAVETLICNGGRLYKDPVLV,inactive
11,EASNCFAIRHFENKFAVETLICNGHCWVYLCKVC,-0.122
12,EASNCFAIRHFENKFAVETLICNGISVNWCSYCS,7.8
13,EASNCFAIRHFENKFAVETLICNGKPYRVGRDS,inactive
14,EASNCFAIRHFENKFAVETLICNGLRGARSDVGL,-0.247
15,EASNCFAIRHFENKFAVETLICNGRARN,0.494
16,EASNCFAIRHFENKFAVETLICNGRMMCRDKPRT,inactive
17,EASNCFAIRHFENKFAVETLICNGRSNRGFNKHW,inactive

# Reference: the supplement of paper PMC12067230
